In PMC4336329 (PLoS ONE, 2015):
About 14,000 (4.5%) of roughly 310,000 compounds showed an effect of 50% or more. The effect is printed as a negative number. This is one part of the list.

Biological target: human ether-à-go-go-related gene (hERG) potassium channel (human, UniProt Q12809)
Assay: primary screen, population patch clamp on CHO cells stably expressing hERG
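Also: peak tail current of the secondary pulse compared with the same well before compound.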

Chain of human ether-à-go-go-related gene (hERG) potassium channel (Q12809 whole entry, looked up): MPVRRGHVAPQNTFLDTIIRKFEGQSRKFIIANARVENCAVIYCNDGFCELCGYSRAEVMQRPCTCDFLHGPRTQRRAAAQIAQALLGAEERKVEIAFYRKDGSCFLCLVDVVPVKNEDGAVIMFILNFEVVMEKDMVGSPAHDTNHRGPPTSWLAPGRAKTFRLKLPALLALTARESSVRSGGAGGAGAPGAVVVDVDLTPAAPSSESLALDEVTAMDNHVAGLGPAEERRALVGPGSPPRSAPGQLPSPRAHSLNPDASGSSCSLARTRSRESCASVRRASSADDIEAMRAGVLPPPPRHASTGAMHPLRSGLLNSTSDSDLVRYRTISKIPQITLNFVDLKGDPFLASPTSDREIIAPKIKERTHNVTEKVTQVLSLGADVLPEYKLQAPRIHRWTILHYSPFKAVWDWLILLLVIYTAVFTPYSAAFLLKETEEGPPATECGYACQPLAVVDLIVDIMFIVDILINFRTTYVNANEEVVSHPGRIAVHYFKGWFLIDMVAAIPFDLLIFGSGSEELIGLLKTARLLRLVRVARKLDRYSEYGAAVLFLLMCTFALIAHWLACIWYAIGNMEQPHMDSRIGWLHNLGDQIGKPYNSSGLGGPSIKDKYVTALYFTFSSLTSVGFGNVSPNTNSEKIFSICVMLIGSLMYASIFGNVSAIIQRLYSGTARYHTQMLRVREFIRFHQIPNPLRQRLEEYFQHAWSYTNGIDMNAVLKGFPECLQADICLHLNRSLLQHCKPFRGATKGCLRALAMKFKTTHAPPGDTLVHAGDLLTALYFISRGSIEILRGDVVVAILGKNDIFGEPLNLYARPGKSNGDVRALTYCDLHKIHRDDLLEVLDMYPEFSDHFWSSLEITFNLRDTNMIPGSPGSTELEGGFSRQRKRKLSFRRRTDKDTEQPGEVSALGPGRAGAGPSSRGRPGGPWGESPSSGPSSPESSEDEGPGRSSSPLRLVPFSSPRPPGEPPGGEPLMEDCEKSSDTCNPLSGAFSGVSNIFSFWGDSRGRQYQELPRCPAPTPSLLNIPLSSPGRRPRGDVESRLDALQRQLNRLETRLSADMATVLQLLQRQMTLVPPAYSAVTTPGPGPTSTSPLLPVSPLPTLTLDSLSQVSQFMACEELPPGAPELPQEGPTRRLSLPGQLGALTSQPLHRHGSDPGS

Row | Compound | hERG current change (%, negative = inhibition) at 10uM [%]
1 | CN(C(=O)COC(=O)/C=C/c1ccccc1[N+](=O)[O-])c1ccccc1 | -33.4
2 | COc1ccc(S(=O)(=O)N(C)CC(=O)NCc2ccccn2)cc1 | 17.2
3 | O=C(N/N=C/c1ccc(F)c(F)c1)c1cccc(S(=O)(=O)N2CCCCC2)c1 | 10.4
4 | CCOc1ccc(Nc2nc(N)c([N+](=O)[O-])c(N3CCN(CC)CC3)n2)cc1 | -62.6
5 | COc1ccc(CC2CCOC2=O)cc1 (stereo not shown) | 1.62
6 | Cc1cc(-c2cc(C(=O)NCc3ccccc3)on2)nc(S(C)(=O)=O)n1 | 9.84
7 | CCc1ccc(OCC(=O)NNC(=O)c2cnccn2)c(Br)c1 | -5.95
8 | CCOC(=O)c1[nH]c2ccccc2c1NC(=S)Nc1cccc(C)c1C | -5.81
9 | Cc1nc2ccccc2nc1OCC(=O)Nc1ccc(F)cc1 | 15.8
10 | C1=C(c2ccccc2)Nc2nnnn2C1c1cccs1 (stereo not shown) | -8.78
11 | C=CS(=O)(=O)c1ccc(Oc2ccc(S(=O)(=O)C=C)cc2)cc1 | -64.3
12 | COc1ccc(OC)c(NC(=O)CNC(=O)c2ccc([N+](=O)[O-])cc2)c1 | -31.4
13 | COc1cccc(OCC(=O)N(C)Cc2nc(-c3cccc(C)c3)no2)c1 | -20.2
14 | COc1cc2c(cc1OC)C1=C(C#N)CC/C(=N\S(=O)(=O)c3ccccc3)N1CC2 | -33.1
15 | Cc1ccc(-c2nn(-c3ccccc3)cc2/C=N/n2c(-c3cccs3)n[nH]c2=S)cc1 | 9.44
16 | CCCCS(=O)(=O)/C=C/[C@H]1[C@H](S(=O)(=O)CCCC)[C@H]2C=C[C@@H]1C2 | -13.7
17 | CC(Sc1nnc(-c2cccs2)n1-c1ccccc1)C(=O)NCc1ccco1 (stereo not shown) | -79.4
18 | COc1ccccc1NC(=O)Nc1cnccn1 | -1.51
19 | COc1ccc(NC(=O)CN(C)CC(=O)NCC(=O)Nc2ccc(F)cc2)cc1 | -16.6
20 | Cn1c(=S)[nH]c2c(c1=O)C(C)(C)Cc1ccccc1-2 | 10.9
21 | CC1CCN(C(=O)c2ccc(S(=O)(=O)N3CCCC3)cc2)CC1 | -3.13
22 | N#Cc1ccccc1S(=O)(=O)N1CCN(CC(O)c2ccccc2)CC1.O=C(O)C(=O)O (stereo not shown) | 8.97

Row | Compound | hERG current change (%, negative = inhibition) at 10uM [%]
23 | CC(C)Oc1ccc(C(=O)NN2C(=O)NC3(CCCCC3)C2=O)cc1 | 1.38
24 | O=C(Nc1cccc([N+](=O)[O-])c1)Nn1cnnc1 | 10.9
25 | COc1ccccc1OCC#CCN1CCCC(C)C1.O=C(O)C(=O)O (stereo not shown) | 25.9
26 | COc1ccc(-c2cc(C(F)F)n3ncc(C(=O)N4CCSCC4)c3n2)cc1 | -43.3
27 | CCCN1CCN(CCCNC(=O)c2ccccc2NC(=O)C2=C(C)OCCS2)CC1 | -13.3
28 | Oc1ccc(N2CCN(Cc3ccc(OCCCN4CCCCC4)cc3)CC2)cc1 | 5.11
29 | Cc1ccc(Cl)cc1N1CCN(S(=O)(=O)c2ccc(-c3ccc(=O)[nH]n3)o2)CC1 | 0.351
30 | CCOc1ccccc1OCCOCCN1CCN(Cc2ccccc2)CC1.O=C(O)C(=O)O | -48.5
31 | O=C(COc1ccc([N+](=O)[O-])cc1)Nc1nc(-c2ccccn2)cs1 | -20.4
32 | Cc1ccc2nc(NC(=O)C3CCN(S(=O)(=O)c4cnc[nH]4)CC3)sc2c1 | 6.57
33 | Cc1ccc(Oc2ccc(Oc3ccc(C)cc3)nn2)cc1 | -3.73
34 | O=C(NC1CCS(=O)(=O)C1)Oc1ccc(Cl)cc1 (stereo not shown) | 1.73
35 | COc1ccccc1-n1cnc2cc(NS(=O)(=O)c3ccc(Br)cc3)ccc21 | -3.3
36 | COc1ccc(Nc2ncnc3sc(C)cc23)cc1.Cl | 2.42
37 | Cc1ccc(C(=O)N/C(=C\c2ccco2)C(=O)N2CCSCC2)cc1C | -28.3
38 | CCCC(=O)Nc1cc2c(cc1C(C)=O)OCCO2 | 8.37
39 | N#C/C(=C\c1ccc(-c2ccccc2[N+](=O)[O-])o1)C(=O)N1CCOCC1 | -33.4
40 | COc1cccc(C2Nc3ccc4ccccc4c3C3=C2C(=O)CC(C)(C)C3)c1OCC(=O)O (stereo not shown) | 20.6
41 | COc1ccc(C(=O)/C(=C/N(C)C)S(=O)(=O)c2ccccc2)cc1 | 10.8
42 | O=C(CCN1C(=O)/C(=C/C=C/c2ccccc2)SC1=S)Nc1cccnc1 | 16.7
43 | COc1ccc(NC(=O)CN(C)C(=O)c2cc3c(s2)CCCCC3)cc1 | -1.48
